Results as given in the supplement of paper PMC11417369.
This is one part of the list.

The sequences below were run on PF3D7_0420300 AP2 domain 1 (GST-tagged) (assay: gcPBM binding intensity (ln(normalized median fluorescence intensity)); higher = stronger DNA binding).
Outline: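 The highest Masliner-normalised natural-log median intensity across replicate spots of either probe orientation is reported as binding intensity. GST-tagged P. falciparum DNA-binding domains expressed in E. coli were applied for 1 h to an Agilent 4 × 180k array of primer-extended double-stranded 36-bp intergenic genomic probes plus negative controls, and bound protein was detected with Alexa488 anti-GST antibody and scanned at 488 nm.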

Going from “TTAAAAAACTATAATACACACCAAAAATATGCACAT [CACACA_site7079]” to “AATATAAATATAAATTGTACTTAAAAATTTCACGCA [XGTACX_site5234]”, the “gcPBM binding intensity (ln)” value falls from 9.85 to 9.12.

Going from “TCCTTTTGAACCCTTTTTCTCACAAGACCTTTATAT [TGCATGCA_negctrl_site413]” to “TTTCGTTGTGTATTTTGTACATATTTTTAATTATAT [XGTACX_site6687]”, the “gcPBM binding intensity (ln)” value rises from 9.11 to 9.48.

Compared with “TTTCTTTTTTAAATTAAAATTTTTTTTTTTTTCGGT [TGCATGCA_negctrl_site52]”, “AAGAAAAAGATGCGCATACACACAGATGAATAACAA [CACACA_site1627]” is higher in “gcPBM binding intensity (ln)” value: 8.81 for the first, 9.85 for the second.

Compared with “TTATTTCAAAGTTGTTGTACAAAAATATATTTATAA [XGTACX_site5226]”, “AATTAAAAAGTTTTTAATGTTTTTAATTTTTTCCAC [XGTACX_negctrl_site423]” is lower in “gcPBM binding intensity (ln)” value: 8.96 for the first, 8.9 for the second.

Compared with “AAAAAAATAATGTACACACACATATATGTTTATATA [CACACA_site6234]”, “TATATAAATTATGTGAGTACATAATTTAGAAGGAAC [XGTACX_site2807]” is lower in “gcPBM binding intensity (ln)” value: 9.65 for the first, 9.43 for the second.

First: AAAGGTGTATTTAATACACACGTGTCATTAAAATTG [CACACA_site4508]
Second: ATTAATATTTAGACTTGTACATATATAATATATGTC [XGTACX_site3766]
The “gcPBM binding intensity (ln)” value of the first is higher: 9.24 for the first, 9.2 for the second.

First: ATAAAATATCAATACCGTACACAAGCAGGTAAAATA [XGTACX_site3719]
Second: CTTTTTTGTAATAACACACACACAAACAGAAAAAAT [CACACA_site2075]
The “gcPBM binding intensity (ln)” value of the first is lower: 9.66 for the first, 10.1 for the second.

Compared with “TTATTATTAGAAAAAAGTACACATATAAAATGTTAC [XGTACX_site6426]”, “GGATACATATGTAAAAGTACACATGAATATATACAT [XGTACX_site6469]” is higher in “gcPBM binding intensity (ln)” value: 9.14 for the first, 9.36 for the second.

First: GTAAAATTAAAAATAACACACAAAAAAAAAAAAAAA [CACACA_site800]
Second: AAAAAAAAAAGAAAAAGTACATACATACATATATAT [XGTACX_site6405]
The “gcPBM binding intensity (ln)” value of the first is higher: 9.38 for the first, 9.35 for the second.

Compared with “TTCTTTTTTATTTATACATGCAATAAAAAATTGATT [TGCATGCA_site730]”, “TTTTTTTAAAACAAAAAAAAAAAAAAAAAAAAAAAA [TGCATGCA_negctrl_site418]” is lower in “gcPBM binding intensity (ln)” value: 9.14 for the first, 8.14 for the second.

First: AATAAACATTATTTTCGTATTCCAATTCTTTTTTTT [XGTACX_negctrl_site374]
Second: TTGATAAAATCACTGGTGCATGTAGATATATAATAT
The “gcPBM binding intensity (ln)” value of the first is higher: 9.4 for the first, 9.3 for the second.

Compared with “AAGAGAGAGAAATATGCACACATAAGGGAAATAAAT [CACACA_site8300]”, “TATATATGTATGTATGTACACACAAAAAATGGAATA [CACACA_site9235]” is higher in “gcPBM binding intensity (ln)” value: 9.6 for the first, 9.64 for the second.

Compared with “AAAATTTTTTTTGGCGCACACTAATAATAAAATATA [CACACA_site470]”, “CTTTTTAATGAATACACACACACACCGATATATATA [CACACA_site5296]” is higher in “gcPBM binding intensity (ln)” value: 9.04 for the first, 10.1 for the second.

First: GAATAATATGGACATACACACATATACATACCTATA [CACACA_site7075]
Second: AAATATTATTGACGATGTACTTCTATTCATAAGTAT [XGTACX_site3964]
The “gcPBM binding intensity (ln)” value of the first is higher: 9.79 for the first, 9.14 for the second.

First: TAAAACTTATACAAATGTACAAATATATATATATAT [XGTACX_site4661]
Second: AGACGATAAATCATTCATTCATTTACCATCCAAAAA [CACACA_negctrl_site802]
The “gcPBM binding intensity (ln)” value of the first is higher: 9.24 for the first, 9.02 for the second.

Going from “TTTTAATTAGTACAAACACACATATACAGACAAAAA [CACACA_site2563]” to “TAATATAGAAAATGCATACACACTTTATATATATAT [CACACA_site911]”, the “gcPBM binding intensity (ln)” value falls from 9.71 to 9.39.

Compared with “TACTATTATTATTGCACACTTATTATCCCTCGGATA [CACACA_site162]”, “TGATCATAGAAACACACACACAAAAAAAAAAAAAAA [CACACA_site4008]” is higher in “gcPBM binding intensity (ln)” value: 9.31 for the first, 9.56 for the second.

Compared with “AATATATATTAATACACACACACATATATATATATA [CACACA_site3786]”, “TATAATAATACTTATTGTACTATTAGTTTAATTCAT [XGTACX_site6638]” is lower in “gcPBM binding intensity (ln)” value: 9.98 for the first, 9.07 for the second.

Compared with “AATAATTTAATACATACACACGTATATCTTTTTTTT [CACACA_site8632]”, “TATATATATAACATATGTACATATATTTATAAATAC [XGTACX_site5484]” is lower in “gcPBM binding intensity (ln)” value: 9.53 for the first, 9.19 for the second.

Going from “TATATAAATATACACCCACACACATATATATATATA [CACACA_site9247]” to “ATCGTAGTATAATATGAACACACACCCACCCACAAA [CACACA_site8616]”, the “gcPBM binding intensity (ln)” value rises from 9.63 to 10.2.

First: TATAAAAAAAAATGTGGTACATATTTCCATTTTCCA [XGTACX_site4571]
Second: TAAATCCGCACGCACACACACATATTAATAAAAAAA [CACACA_site7800]
The “gcPBM binding intensity (ln)” value of the first is lower: 9.01 for the first, 9.68 for the second.

First: TTATTTTTATTATAAATTATAAAATATAAATAAATA [GTGCAC_negctrl_site616]
Second: GAAACTATGTAATGCACACCAAAATAAAATTATTAA [CACACA_site1904]
The “gcPBM binding intensity (ln)” value of the first is lower: 8.65 for the first, 9.27 for the second.

Going from “TCTTCTTAACCAACTATGAAAAGGAAAAATATAACA [GTGCAC_negctrl_site565]” to “ATATATTATATATATAGTACGTATATAAATTTAATT [XGTACX_site5041]”, the “gcPBM binding intensity (ln)” value rises from 9.06 to 9.21.

Going from “CATGAATTTTTTTAATGTACATTCACATCATAAAAA [XGTACX_site7475]” to “ATTATAAAAAAGAAACGTACATATTTATTGTTTTTT [XGTACX_site2161]”, the “gcPBM binding intensity (ln)” value rises from 8.89 to 9.32.

Compared with “TAAATAAATTTATGTACACACACAAATAAATACATA [CACACA_site5107]”, “AAAAAAAAGAAAAACACACACATATTTATTTATAAC [CACACA_site6600]” is higher in “gcPBM binding intensity (ln)” value: 9.81 for the first, 9.93 for the second.

First: TATATATTAAATTATAGTACACATTATATATAATTA [XGTACX_site4841]
Second: ATAATATATGTATGTATGCACTTTTATTATTTTTTT
The “gcPBM binding intensity (ln)” value of the first is lower: 9.18 for the first, 9.54 for the second.

Going from “TATATATATATATATAGTACACATATCACATAAATG [XGTACX_site6379]” to “ATAATATATATATTTTGTACACATGAAAAGGAGGAT [XGTACX_site5034]”, the “gcPBM binding intensity (ln)” value rises from 9.27 to 9.52.

Going from “ATATATATATATGTACACATATATGTGTTTGTTTTT [GTGCAC_negctrl_site5]” to “CTATTACAAAGAAATTGTACATATATATATAAAAAC [XGTACX_site8800]”, the “gcPBM binding intensity (ln)” value falls from 9.7 to 9.31.

Compared with “ATCTTTCAATAATTCACACATATATATATATATATA [CACACA_site4598]”, “AGCCACAATACGGAAACACACAAGTTATTTTATCAT [CACACA_site2724]” is higher in “gcPBM binding intensity (ln)” value: 9.37 for the first, 9.48 for the second.

First: AATGAAGACTTTTTTACACACTTCATATCTTATAGA [CACACA_site7046]
Second: TTTTAACGTAATTCAAATGAGCAGAATTTTTTAAAA [CACACA_negctrl_site1800]
The “gcPBM binding intensity (ln)” value of the first is higher: 9.39 for the first, 8.83 for the second.

Compared with “TTTTTATGAATTCTTTTGTTAATAATAATATGTTGT [TGCATGCA_negctrl_site198]”, “AAATTTTTTCCGATTTGTACTTATATTTCTTTATTA [XGTACX_site1762]” is higher in “gcPBM binding intensity (ln)” value: 9.19 for the first, 9.52 for the second.

First: AATATTTTTAATTAATGTACATATTTATTATATAAA [XGTACX_site5112]
Second: AAATAAGAGCGTAGCACACACGCATTTTATAAATGG [CACACA_site4571]
The “gcPBM binding intensity (ln)” value of the first is lower: 8.92 for the first, 9.25 for the second.

First: TCATATAAGTTTAGTAGTACTAAAAGTTAGAGAGAA [XGTACX_site3430]
Second: TGATTATTATAATTTAGTACATAATATTTTATATAA [XGTACX_site6125]
The “gcPBM binding intensity (ln)” value of the first is higher: 9.24 for the first, 8.94 for the second.

First: CAAGGAACCAGACACACACACATAAATGTATATATA [CACACA_site752]
Second: ATATATGGAAAGAGTAGTACTATTATAGGGGTGTTA [XGTACX_site6785]
The “gcPBM binding intensity (ln)” value of the first is higher: 9.91 for the first, 9.55 for the second.

Compared with “AAAACAAAAGAATTCACACATATATATATATATATA [CACACA_site4777]”, “AAAATTAAACATACATCACACATGCATTATATTATG [CACACA_site5517]” is lower in “gcPBM binding intensity (ln)” value: 9.41 for the first, 9.38 for the second.

Going from “TTAAACGTACATAATACACACACATGTAGACATATA [CACACA_site8635]” to “AAAATTAACGAGTGCACACATATTTAGATAAAATAC [CACACA_site2936]”, the “gcPBM binding intensity (ln)” value falls from 9.79 to 9.61.

First: ATAAAGTCTATATTATGTACATATAATATAAATATT [XGTACX_site6703]
Second: AAAAAACTTCACATATGTACTTAAAAAAAATTAAAA [XGTACX_site2368]
The “gcPBM binding intensity (ln)” value of the first is higher: 9.1 for the first, 8.94 for the second.

First: GAACATTACGTAAATAAATAAATAAAAATAAATACA [XGTACX_negctrl_site25]
Second: TATTGTCTTGTATATGCATGTAGACCAAATATGTAA [TGCATGCA_site9]
The “gcPBM binding intensity (ln)” value of the first is higher: 9.38 for the first, 9.07 for the second.

Compared with “CAAAAAAAAATCTGTAGTACTTATTAATATTGCTGT [XGTACX_site4767]”, “ATCACAAAAAAGTTCATACACACAACCTATTTATAT [CACACA_site2888]” is higher in “gcPBM binding intensity (ln)” value: 9.15 for the first, 9.68 for the second.

First: AAATCAAATTTTTAGAGTACTTAAGTTTTCTATATA [XGTACX_site7827]
Second: TAATATATTAATATATGTACATATTTATATATCTAC [XGTACX_site7117]
The “gcPBM binding intensity (ln)” value of the first is lower: 8.83 for the first, 9.12 for the second.

Going from “TCCCCATATGTTTTGTGTACATATATATTTTTTTGT [XGTACX_site75]” to “GCTTATTTTAATTCTTGTACTTATTTATATACAAAT [XGTACX_site2099]”, the “gcPBM binding intensity (ln)” value falls from 9.65 to 9.54.

Going from “TAATGGTGTTCATGTGGTACACTTTATAAATTGGCA [XGTACX_site729]” to “TTGAAAATTCTTAAGGCACACACATATATAATATAT [CACACA_site8088]”, the “gcPBM binding intensity (ln)” value rises from 9.06 to 9.49.

Going from “AAACTAACTCTAACATGTACATATATATATATATAT [XGTACX_site6949]” to “TTTTGAAGTAATACATGTACTTAAATTACTAAAAAA [XGTACX_site1955]”, the “gcPBM binding intensity (ln)” value falls from 9.17 to 8.89.

Going from “ACTTTGCGTTAAAAGAGTACATAATATTTTTTTTTT [XGTACX_site7533]” to “ATACTTTATTAATATTGTACAAAATAAGAAAAAAAA [XGTACX_site310]”, the “gcPBM binding intensity (ln)” value falls from 9.19 to 9.12.
